# In the BET-seq Pho4 binding data (Le et al. 2018):
# This is one part of the list. Values were computed here from the reads of four pooled replicates and scatter widely.
# Target: T1, Pho4 (S. cerevisiae) (UniProt P07270)
# T1 sequence: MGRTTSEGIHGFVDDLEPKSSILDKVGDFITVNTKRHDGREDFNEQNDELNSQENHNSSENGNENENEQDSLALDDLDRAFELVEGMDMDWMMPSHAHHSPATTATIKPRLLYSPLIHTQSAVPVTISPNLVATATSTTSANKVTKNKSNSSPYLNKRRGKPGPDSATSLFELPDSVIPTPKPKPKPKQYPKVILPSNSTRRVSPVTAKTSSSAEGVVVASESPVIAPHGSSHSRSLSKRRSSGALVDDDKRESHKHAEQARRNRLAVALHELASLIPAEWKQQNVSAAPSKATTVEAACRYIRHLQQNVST
# Assay: relative binding free energy (BET-seq); higher = weaker binding
# Conditions: reference: library average
row,Sequence,relative binding free energy [kcal/mol]
1,GGTCTCACGTGTTTGA,0.35
2,TGTTACACGTGTAATA,0.13
3,GGGAGCACGTGTATCG,-0.16
4,TAGCGCACGTGATTGG,0.06
5,GTGGTCACGTGCGTGT,0.04
6,AGGTCCACGTGTTGAA,0.15
7,TGGAGCACGTGCGGGG,-0.04
8,CTTGCCACGTGAGGTT,0.11
9,ACGGCCACGTGGGGGG,-0.29
10,TCTGTCACGTGGAGCT,0.1
11,TGGGTCACGTGACGTC,0.18
12,GTTTACACGTGAAGGC,0.42
13,TAAGGCACGTGTTGGC,-0.12
14,TGTAGCACGTGTGCGA,-0.11
15,GGGGACACGTGATAGG,0.23
16,GAGTGCACGTGTCTTA,0.06
17,AGTATCACGTGGGGGT,0.02
18,TTGGACACGTGGTCTG,0.04
19,CATTGCACGTGGTCGT,0.02
20,AAAGTCACGTGGACGG,0.15
21,TTCGCCACGTGGGGGA,-0.07
22,GGTTGCACGTGTTTTG,0.03
23,GTTCACACGTGTGTTG,0.13
24,GAAGACACGTGGGTCG,-0.01
25,TGGGTCACGTGTGGGG,0.19
26,AGAAGCACGTGTAGAT,0.25

row,Sequence,relative binding free energy [kcal/mol]
1,TCGTTCACGTGCTGTT,0.43
2,CTTTTCACGTGTATTA,0.07
3,ATCTACACGTGAGTGG,0.37
4,GTTAGCACGTGTGAGG,0.07
5,GGTTACACGTGCGGGT,0.19
6,GAGTGCACGTGGAGCT,0.04
7,TAGGGCACGTGTGAGT,-0.04
8,TAAATCACGTGTAGTT,0.24
9,TGCGCCACGTGTGAGT,-0.04
10,AGTGGCACGTGTGACA,0.11
11,ATGGCCACGTGGGGGA,-0.17
12,TATGGCACGTGAGCAT,0.06
13,TCGAGCACGTGGGTGT,-0.18
14,TACTGCACGTGGGTTG,-0.33
15,AAGGACACGTGTGGAT,0.02
16,ATTTGCACGTGGGCTC,-0.1
17,ACGGTCACGTGAGTAG,0.17
18,GATATCACGTGGTAAT,0.15
19,TAGGCCACGTGTGATT,0
20,TCATGCACGTGTGGGT,0.02
21,GGGACCACGTGGACGG,0.13
22,TTAGACACGTGAAAGT,0.32
23,GGGAGCACGTGCAGGT,-0.17
24,AGGTTCACGTGTGGAT,0.33
25,GTATTCACGTGGACTG,0.27
26,TGACTCACGTGCGGTG,0.12

row,Sequence,relative binding free energy [kcal/mol]
1,ATAATCACGTGTGCGT,0.22
2,TCGAACACGTGAGGTG,0.5
3,GTGTCCACGTGGAGGT,-0.08
4,CATGTCACGTGAGTAG,0.23
5,TAATGCACGTGTTTGA,-0.03
6,TTTTGCACGTGTGCGG,0.1
7,AAGGACACGTGAGAGG,0.24
8,GGTTTCACGTGCTATT,0.28
9,AGATGCACGTGATTTG,-0.13
10,TAAGTCACGTGATATA,0.18
11,TTCGTCACGTGATTAG,0.22
12,TCGTACACGTGTAGGT,0.05
13,TTTTTCACGTGATAAG,0.26
14,TGCTTCACGTGTCGGG,0.17
15,GGAAGCACGTGTTGTT,-0.11
16,GTGAGCACGTGTCGGT,-0.01
17,CAAGACACGTGGAGGG,0.1
18,AGGTGCACGTGGGTCT,-0.2
19,TATGACACGTGAATTG,0.2
20,AGCTGCACGTGTGGTG,-0.07
21,GTTTTCACGTGCATAT,0.42
22,GTATGCACGTGTAAGT,0.13
23,TTGTTCACGTGGGTTG,0.21
24,GGCGGCACGTGTGAGA,0.07
25,TGAATCACGTGTTTAT,0.25
26,CGTTTCACGTGGATCG,0.26

row,Sequence,relative binding free energy [kcal/mol]
1,TGTGCCACGTGACGGG,-0.17
2,ACGGGCACGTGTGGCG,-0.14
3,CTTATCACGTGTGTTA,0.03
4,GTATGCACGTGTTCGG,0
5,GTTGTCACGTGCTGTT,0.06
6,GAGAGCACGTGATTGT,0.03
7,CTAGCCACGTGGTGGT,-0.11
8,GGCTGCACGTGGGGGC,-0.09
9,AGATTCACGTGTCAGT,0.33
10,AGGAACACGTGTAGTT,0.23
11,CAGGTCACGTGAGGTA,0.34
12,GGTAGCACGTGAGGAA,0.16
13,AAATGCACGTGGGAGT,-0.08
14,GGGGTCACGTGCGTCA,0.06
15,ATCGGCACGTGTATGT,0.09
16,TATACCACGTGTGTAT,-0.02
17,TTTATCACGTGCGTTG,0.02
18,CGTGCCACGTGGGGTT,-0.24
19,TTTTGCACGTGATGTC,0.16
20,AAATGCACGTGGGGTC,-0.19
21,CGGGGCACGTGTTGAG,-0.1
22,TATTGCACGTGTCAGG,-0.13
23,AAGGCCACGTGTAGGT,-0.1
24,TTTTGCACGTGCGGAT,-0.05
25,AGTCTCACGTGGAGTT,0.15
26,TTTATCACGTGTTGCA,0.12

row,Sequence,relative binding free energy [kcal/mol]
1,ATGAACACGTGTATGT,0.09
2,ATTGGCACGTGTATAG,-0.04
3,ATTGGCACGTGAACGT,0.08
4,ACTGGCACGTGTCGTT,-0.04
5,TTTTACACGTGTCTTG,0.1
6,CGGGCCACGTGTCAGG,0.03
7,TAATGCACGTGGTGCA,-0.19
8,TTAAGCACGTGCTGGC,-0.08
9,GTGGTCACGTGATGTT,0.3
10,TGTGCCACGTGTATGC,-0.11
11,AAGGACACGTGGTCGG,-0.03
12,GCGATCACGTGAGGTG,0.39
13,TCGTTCACGTGCGGTA,0.2
14,TTTGACACGTGTTAAG,0.14
15,TATAGCACGTGAGCTG,0.25
16,TTGGGCACGTGCTGGA,-0.29
17,GGGACCACGTGTCGGG,0.06
18,CTGCGCACGTGGTTGG,-0.34
19,GGGGTCACGTGGGCCC,-0.01
20,CTGTTCACGTGATTTG,0.47
21,ATATGCACGTGATATG,-0.1
22,TTTTGCACGTGGGAGT,-0.07
23,TGGCACACGTGAATGT,0.32
24,TGGAGCACGTGAAGGG,0.26
25,GTAGGCACGTGTTTAT,0.03
26,GTTTACACGTGTAGAG,0.16

row,Sequence,relative binding free energy [kcal/mol]
1,CGTCGCACGTGAGTGT,0.1
2,TGTATCACGTGTGCTA,0.22
3,TGCGTCACGTGGGTCG,-0.13
4,TAAAGCACGTGTCTGT,-0.1
5,TCTTGCACGTGGGTTG,-0.08
6,ATGTACACGTGTATCG,0.05
7,TTAGCCACGTGGGCGT,-0.23
8,AGTGGCACGTGTATCT,-0.07
9,GGAAGCACGTGTAATG,0.03
10,TGTTCCACGTGTGGGT,0.2
11,AACGGCACGTGGGATG,-0.13
12,TCGGCCACGTGTGATG,0.17
13,TTAGTCACGTGTTTTG,0.07
14,TATTGCACGTGTCTTA,-0.04
15,TTTCACACGTGTGGTA,0.19
16,TAATACACGTGATAGG,0.18
17,AACGACACGTGAGGGT,0.24
18,TACTGCACGTGCTGTG,-0.07
19,ATTTGCACGTGATGCT,0.01
20,GTGGGCACGTGTGTTC,0.01
21,GGCATCACGTGGTTTA,0.11
22,TTGGTCACGTGTAAAG,0.19
23,GAGAACACGTGGGAGT,0.03
24,TATGGCACGTGCGAGC,-0.02
25,TGTCGCACGTGGCGTG,-0.09
26,TTGTACACGTGAGAGA,0.25

row,Sequence,relative binding free energy [kcal/mol]
1,TTTAGCACGTGATACT,0.02
2,TTGGGCACGTGGAACA,-0.06
3,TGTGACACGTGTATCT,-0.09
4,GGGAGCACGTGTGCGC,-0.08
5,TTACACACGTGATGTG,0.06
6,GGAGGCACGTGCGTTA,-0.19
7,GGTTGCACGTGAGGAT,0.26
8,AAGATCACGTGGGGGA,-0.04
9,CTGCGCACGTGAGGGT,-0.01
10,TCTTTCACGTGTGCGG,0.38
11,GAGTGCACGTGTGTCT,0.16
12,GGTAGCACGTGAGTTA,0.21
13,TTCGGCACGTGTTTTA,0.04
14,GTTCGCACGTGGGAGT,0
15,TATGTCACGTGCGGGC,0.2
16,ATATACACGTGTATAG,0.1
17,TTTAACACGTGAGTGA,0.15
18,TCAGACACGTGTGTTG,0.09
19,GTGTACACGTGAGTCG,0.16
20,ATAAGCACGTGTTGGT,-0.05
21,CGGTGCACGTGGTTGG,0
22,GGAATCACGTGTATGG,0.04
23,TTTCCCACGTGTTTGT,-0.13
24,CGGGACACGTGGGTGG,-0.11
25,TGTTACACGTGTAGCT,0.05
26,CAAGTCACGTGTATTG,0

row,Sequence,relative binding free energy [kcal/mol]
1,GTTAACACGTGAGTAG,0.21
2,TTGGACACGTGCTTGG,0
3,TGGGCCACGTGTGGGG,0.01
4,ATGTTCACGTGTTATC,0.35
5,TCATTCACGTGGCGTG,0.16
6,TGAATCACGTGCTTTG,0.1
7,TAATGCACGTGTGAAG,0.04
8,GGGGACACGTGTTTTT,0.09
9,TGATTCACGTGCGTCT,0.3
10,ATTATCACGTGTGGGC,0.05
11,CTGTTCACGTGGGCAG,0.08
12,GGGAACACGTGTCAGG,0.1
13,TTGATCACGTGTGGTG,0.21
14,GCAGTCACGTGGTTGT,0.15
15,CGTAGCACGTGGTGGG,-0.21
16,TAGGTCACGTGGTAGG,0.03
17,GTGTGCACGTGAAGTG,0.27
18,TGGAGCACGTGTGGGG,-0.08
19,CTCTGCACGTGTGGTG,-0.08
20,GGTACCACGTGTGGGT,0.05
21,ACGGTCACGTGTAGGA,0.17
22,TATTACACGTGGGGGC,0.02
23,CTTTGCACGTGGGTAT,-0.14
24,AAAGTCACGTGTTGGT,0.06
25,AATGTCACGTGTGGTA,0.19
26,ATCTGCACGTGGGGGT,-0.22

row,Sequence,relative binding free energy [kcal/mol]
1,ATCGTCACGTGTCAGG,0.22
2,GGTCTCACGTGTCTTG,0.29
3,TGAAGCACGTGTATGA,-0.01
4,GTAGTCACGTGGCGTG,0.01
5,GATGGCACGTGTTGGG,0.08
6,GTTGCCACGTGGGGAA,-0.22
7,GTGCGCACGTGTGGTT,0.09
8,GTGAGCACGTGGTGAC,-0.06
9,TAGCGCACGTGATGTT,-0.01
10,GGAGTCACGTGAGTCG,0.26
11,TCTTTCACGTGAGAAT,0.43
12,TAGTGCACGTGTCGGT,-0.03
13,TAATTCACGTGTAATG,0.32
14,TATATCACGTGCATAT,0.14
15,AGGCGCACGTGAAAGG,0.19
16,ATGTGCACGTGGTCCG,-0.14
17,GAGAGCACGTGGGAAG,-0.06
18,GGTTTCACGTGTGGGT,0.32
19,TGTTGCACGTGGCTCG,0
20,CAATTCACGTGTGTGT,0.15
21,GTTAGCACGTGTAGGG,0.07
22,GTGCGCACGTGGGGAA,-0.15
